Sequences and labels used below:
B1: LINE1-mini (parent)
chain: GGCAGAGCUCAACACAGCGUGGCAAAGUGGCUGUGGCUAGACUGCC

Consider 167 variants from the RNAGym collection of RNA variant scans (doi:10.7554/elife.90254).

Read counts are not given, so values of variants with three or more changes are uncertain.

In this data set the parent is B1. Kind of data set: self-cleavage, relative activity (ratio to wild type); higher = more cleavage; in vitro, sequencing; the parent is a self-cleaving ribozyme.
As to A11C G30U C31U C37U U38A, the self-cleavage turned out to be 0.01.
As for A11C G27A U28G, the figure is 0.02; as for A11G A24U U34C, 0.02; as for A11G G35C U43A, 0.03.
Regarding A11U C23U U43A, the self-cleavage was found to be 0.01.
With A11C G35A C37U, the self-cleavage worked out at 0.02.
For the variant A11C C31U C42U, the self-cleavage is 0.02.
As for A11G A14U C15U G17A A26G G36U C42A C45G, the self-cleavage turned out to be 0.
As for A11U A12U U32C, the figure is 0.07; as for A11U C23U U32G U34G, 0.01.
On to A11G G33C G40C G44U, for which the self-cleavage stood at 0.02.
As for A11G C37A A39G G40A, the self-cleavage came to 0.
On to A11U G21A U34C G40C, for which the self-cleavage was 0.02.
In the case of A11G A16U A26G C42A, the self-cleavage worked out at 0.
For the variant A11U G17C U20G A24G G30A, the self-cleavage is 0.02.
A11G C31A U32G G33U: the self-cleavage was found to be 0.01.
The result for A11G C18A C23A U28A U43C reads 0.
For A11U G17C G19C C45G, the self-cleavage is 0.01.
A11G C18A G22C G27A G35C: the self-cleavage stood at 0.64.
Take A11G G21C A24U A25U G33A C37U A39C: the self-cleavage worked out at 0.
The result for A11U A12G C45G reads 0; that for A11C C15G U34G G40U, 0.01.
Regarding A12C A14G U34C G35C, the self-cleavage is 0.03.
The result for A12C A16G C23G G29A reads 0.03; that for A12C A14U G19U, 0.03; that for A12C G17C C23A, 0.02.
Take A12C C23U G33C G40U: the self-cleavage came to 0.
As for A11U C18A G21U, the figure is 0.35; as for A11U A26G A39U, 0.01; as for A12C A14U G33A A41U, 0.01.
In the case of A12C G21A U43C, the self-cleavage was determined as 0.06.
In the case of A12C C18U A25U, the self-cleavage amounted to 0.04.
As for A11G A25G G33U, the self-cleavage is 0.02.
As to A11C U34A G35C U43C, the self-cleavage was determined as 0.02.
On to A12C G19A G27A C31U G36A G40C, for which the self-cleavage was found to be 0.02.
In the case of A11U G19C G29A G40A, the self-cleavage turned out to be 0.01.
For the variant A11G C13G G19C C42U U43G, the self-cleavage is 0.01.
Consider A11U C13A G21U C37A, for which the self-cleavage was 0.
On to A11U C42U C45A, for which the self-cleavage amounted to 0.
Take A11U A26U A41U: the self-cleavage was 0.06.
The result for A11G C13U U38G reads 0.02.
Regarding A11U C15A A26C G27A U28G G30U, the self-cleavage was 0.01.
In the case of A11U A24U C46G, the self-cleavage came out at 0.02.
Consider A11U G19U C45U, for which the self-cleavage was 0.3.
Regarding A11G A24G G40A, the self-cleavage was 0.02.
Take A11G A16C U34C C46U: the self-cleavage was 0.01.
Take A11G C15A C18A: the self-cleavage is 0.03.
For the variant A11C G17A G33C, the self-cleavage stood at 0.02.
A11U C15G G21A: the self-cleavage was determined as 0.03.
Regarding A11C G19A G21A A26U C46U, the self-cleavage is 0.04.
In the case of A12C G19A A25U G29A, the self-cleavage amounted to 0.01.
Turning to A12C C13A G17U A26C, the self-cleavage turned out to be 0.
As for A11G C37A G40U, the figure is 0.07; as for A11U C13G U34G, 0.02.
As to A11G C15A G17C G29C, the self-cleavage turned out to be 0.01.
A11U U20G U34A U38A C46A: the self-cleavage came to 0.01.
The result for A12C A25G C45U reads 0.01.
Regarding A12C A25U G40U C45G, the self-cleavage is 0.06.
As for A12C C13A C18U, the figure is 0.01.
As for A11U U20A G35U, the self-cleavage was found to be 0.02.
On to A11U A24G U34G, for which the self-cleavage came to 0.01.
The result for A11C G22U A26U G30U C45A reads 0.01; that for A11G C31U C37U U38A, 0.02; that for A11U G36U G44U C45G, 0.02.
With A11C G27A C46A, the self-cleavage came out at 0.03.
As to A11C G22A A41U, the self-cleavage came to 0.03.
Turning to A11C G22A A41G, the self-cleavage stood at 0.
On to A11U G30A G33U, for which the self-cleavage amounted to 0.02.
As for A12C C23A G36A, the figure is 0.04.
As to A11U A14G C46A, the self-cleavage worked out at 0.03.
Take A11G C13A G35A: the self-cleavage is 0.01.
A12C C15A G29C G30C: the self-cleavage was 0.03.
Consider A11G A12G G21U G40C A41C, for which the self-cleavage turned out to be 0.
As for A12C C15U A25G G29C, the figure is 0.08; as for A11U G19A G33A, 0.03; as for A11G G40U G44A C45U, 0.01.
Turning to A11C C18A G30U, the self-cleavage was 0.09.
A11U C15U G30U G36U C42A U43C C45A: the self-cleavage was 0.01.
As to A11U C13G G19U A26C C37G C46A, the self-cleavage turned out to be 0.
Take A11G A26U G40U: the self-cleavage was found to be 0.01.
With A11U C13A A26C U34C A41C, the self-cleavage was 0.
A11U C31G A39C C45U: the self-cleavage came to 0.03.
Consider A11U G19A G22U U32G C45G, for which the self-cleavage was 0.02.
Consider A11C C23U U32C, for which the self-cleavage came to 0.02.
For A11U C13A C18A, the self-cleavage came to 0.04.
For the variant A11U C13U A39G, the self-cleavage was 0.01.
In the case of A11G G17U U32A G36A, the self-cleavage came to 0.01.
As for A11U G35C C37U U38G, the figure is 0.
As to A12C A16G G17C C37A, the self-cleavage amounted to 0.02.
As for A11U A12C C18G, the figure is 0.03.
As for A11U A16G A26U G27U, the self-cleavage was 0.01.
As for A11U G17U A26G, the figure is 0.01; as for A11U G21A A26U, 0.67; as for A11C C15U G40U, 0.02.
In the case of A11U A24G C42A, the self-cleavage is 0.03.
Regarding A11C C18U G36A U38G, the self-cleavage is 0.02.
For A11C C23A A25G, the self-cleavage was 0.02.
For A11C C18A G22C G36U A41C C42G C45A, the self-cleavage came to 0.
A11G G19U G21A A24G U34A: the self-cleavage came out at 0.01.
As to A11U C23A C45G, the self-cleavage worked out at 0.03.
A11U A14C C42G: the self-cleavage worked out at 0.
For the variant A11C C23U G30C, the self-cleavage was 0.1.
A11G A16U G19A: the self-cleavage turned out to be 0.01.
A11U C23G A25U A26G: the self-cleavage was found to be 0.26.
Take A11U G21A G22A U43G: the self-cleavage turned out to be 0.
Regarding A11U C13U C42G, the self-cleavage is 0.02.
Take A11U U20G G40U: the self-cleavage worked out at 0.01.
Regarding A11U A16C C23A A24U, the self-cleavage worked out at 0.01.
In the case of A11G A14U C23U C42U, the self-cleavage stood at 0.03.
Turning to A11U A16G U28G U38A, the self-cleavage worked out at 0.
For the variant A11U A14C G22C G35U, the self-cleavage worked out at 0.02.
Take A11G G22U G30C U32A U34A: the self-cleavage is 0.
In the case of A11U C15U C37A U38G, the self-cleavage is 0.
For A11G C15U G19U G44A, the self-cleavage amounted to 0.03.
As to A11C G36U U43A, the self-cleavage stood at 0.
Take A11U G29A U34G: the self-cleavage stood at 0.04.
With A11U A24C U28C G29A, the self-cleavage amounted to 0.08.
In the case of A11G A14U U28A U32G, the self-cleavage worked out at 0.01.
A12C G17C C18U G27A: the self-cleavage worked out at 0.02.
Turning to A11U G35A U43A, the self-cleavage was 0.03.
Take A11G G27A U32C G36U G44U: the self-cleavage is 0.01.
As for A12C C18G C23U G35A, the self-cleavage was found to be 0.
For A11G A16C U28A, the self-cleavage was found to be 0.03.
For the variant A11U C13G U20C U28A G30C A39G G44A, the self-cleavage came to 0.
Regarding A11U A12U U43A, the self-cleavage worked out at 0.05.
As for A11G G17U G19A G30C, the figure is 0.03.
The result for A11U C15U G17A A25C A26U G40A C42G reads 0; that for A12C A14G G17A G21A C23G C46A, 0.02; that for A11U C31A A41G, 0.01.
As to A11C G30U G36C C37U, the self-cleavage amounted to 0.01.
For A11C C18A A26G G36A G40U A41U, the self-cleavage was 0.01.
For A12C C18A A24C, the self-cleavage amounted to 0.02.
Take A11G U20A C46A: the self-cleavage came out at 0.07.
As for A11U G29A C37A C45U, the self-cleavage was determined as 0.
A12C C15U A25U: the self-cleavage stood at 0.03.
Consider A11U G30C G40A, for which the self-cleavage is 0.01.
The result for A11U A12U C31A reads 0.01; that for A12C A16G C18U A25G A26G, 0.03.
The result for A11G U32C U34G reads 0.
As for A11U A16U G27A U28A, the figure is 0.01; as for A11G C13G A14G G19C A26C U28G, 0.03; as for A11U C15G C37U, 0.01.
On to A11G A16U C31U C37U G40C, for which the self-cleavage stood at 0.
Consider A11C C23A U43A G44U, for which the self-cleavage was found to be 0.01.
For A11U A16C A24G C46A, the self-cleavage turned out to be 0.02.
In the case of A11G G29A G30U, the self-cleavage was found to be 0.1.
Take A12C A16G C18U G19U G27A G29A G35A: the self-cleavage turned out to be 0.06.
Turning to A11G A12U G17C G22U, the self-cleavage turned out to be 0.02.
As for A12C C18G G35U, the figure is 0.04; as for A11U A14C A25U C31A, 0.03.
For A11U A12C A16U G33A C37U A41C, the self-cleavage turned out to be 0.02.
Take A11C G21A A26C: the self-cleavage came to 0.05.
With A11U A26G G35U G36A, the self-cleavage was 0.01.
Take A11G U28G C31U A41U: the self-cleavage worked out at 0.02.
The result for A12C A16C G30C C31U reads 0.02.
For the variant A11U G19U A26C G29A, the self-cleavage was determined as 0.06.
Take A11C C31G U38A G40A: the self-cleavage was determined as 0.
The result for A11U A12U G21C reads 0.13; that for A11G A16C U20A A24U, 0; that for A12C G17U A25U A26U U28G U34A, 0.05.
Take A11C G29U U43A: the self-cleavage stood at 0.01.
In the case of A11U A41U C45G, the self-cleavage came out at 0.05.
On to A11U C15U G35A, for which the self-cleavage worked out at 0.03.
The result for A11C G27U G33U C37G reads 0; that for A11U G21C A25U G36A, 0.01; that for A11C G19A U28A G44U, 0.02.
For the variant A12C C18U G30A A41C, the self-cleavage amounted to 0.02.
